Laboratory results reported in PubChem BioAssay AID1030 (National Center for Advancing Translational Sciences (NCATS), 2008).
Out of some 220,000 compounds screened, about 16,000 (7.3%) were called active. Inconclusive means that the source gave no clear call. Such entries were picked first, then a sample of the others. The call rests on the fitted dose curve; in most records, active means well fitted inhibition curve with a large enough effect (not every such curve was filed as active); inconclusive means small, poorly fitted or top-dose-only effect, or another doubt; inactive means no such curve, though single readings can be large or run the other way. Potencies of inconclusive entries are left out as doubtful fits.

These molecules were tested against Aldehyde dehydrogenase 1A1 (Homo sapiens) (UniProt P00352) (assay: qHTS Assay for Inhibitors of Aldehyde Dehydrogenase 1 (ALDH1A1)). Conditions: Purified ALDH1A1, NADH fluorescence, propionaldehyde substrate; series mostly up to 75.3 µM.
Potency means the concentration at half of the fitted maximal effect; tags describe the fitted curve by direction and shape.

Chain of UniProt P00352 (P00352 whole entry, looked up): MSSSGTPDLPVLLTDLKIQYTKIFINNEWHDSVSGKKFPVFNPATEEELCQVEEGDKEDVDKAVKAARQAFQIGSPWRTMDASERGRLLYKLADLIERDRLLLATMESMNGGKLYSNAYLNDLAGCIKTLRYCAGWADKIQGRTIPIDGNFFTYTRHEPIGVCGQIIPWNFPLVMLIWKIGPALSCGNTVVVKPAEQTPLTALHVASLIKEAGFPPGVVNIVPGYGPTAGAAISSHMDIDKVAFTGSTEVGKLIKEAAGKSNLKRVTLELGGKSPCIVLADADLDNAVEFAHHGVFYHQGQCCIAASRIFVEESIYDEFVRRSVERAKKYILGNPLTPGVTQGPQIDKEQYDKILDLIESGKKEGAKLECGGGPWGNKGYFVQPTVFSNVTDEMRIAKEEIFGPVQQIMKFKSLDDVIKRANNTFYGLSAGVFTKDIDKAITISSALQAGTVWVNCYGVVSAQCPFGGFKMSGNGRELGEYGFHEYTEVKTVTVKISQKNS

SMILES | Potency
CCOC(=O)c1cc(-c2ccccc2)n(CCC(=O)N2CCN(c3ccccc3OC)CC2)c1C | inconclusive [inhibitor, single point]
COc1ccc(N2CCCn3c2nc2c3c(=O)n(Cc3ccc(C)cc3)c(=O)n2C)c(OC)c1 | inconclusive [inhibitor, partial curve]
CC1=C(C(=O)Nc2ccc(C)cc2C)C(c2cccs2)NC(=S)N1 (stereo unspecified) | inconclusive [inhibitor, partial curve]
COCCCNC(=S)NCCNc1nc2c(C)c(C)ccc2cc1C#N | inconclusive [inhibitor, single point]
COc1cc(CCC(C)=O)ccc1OC(=O)c1c(F)cccc1Cl | inactive
O=C(OCc1cc2ccccc2[nH]c1=O)c1ccco1 | inconclusive [inhibitor, single point]
CC(N)CN (stereo unspecified) | inconclusive [inhibitor, single point]
COc1cc(CNCc2c[nH]c3ccccc23)cc(OC)c1 | inconclusive [inhibitor, single point]
O=C(COc1ccc(OCc2ccccc2)cc1)NN=C1CCCC1 | active: 8.91 µM
COC(=O)[C@@]1(C)C=C[C@@H](Cc2ccccc2)N1C | inconclusive [inhibitor, single point]
O=C(NCc1ccco1)c1ccccc1NS(=O)(=O)c1cccs1 | inconclusive [inhibitor, single point]
COc1ccc(-c2ccnc3nc(/N=C/N(C)C)nn23)cc1 | inconclusive [inhibitor, partial curve]
COc1ccc(N(C(=O)c2ccco2)S(=O)(=O)c2cc(OC)ccc2OC)cc1 | inconclusive [inhibitor, full curve]
Cc1cccc(NC(=S)N(CCN(C)C)Cc2cc3cc(C)ccc3[nH]c2=O)c1 | inconclusive [inhibitor, single point]
O=C(c1ccc(F)cc1)N1CCCCC(Sc2nnc3ccccn23)C1=O (stereo unspecified) | inactive
CSc1nncc(-c2ccc(F)cc2)n1 | inconclusive [inhibitor, single point]
Cn1c(=O)c(-c2ccc(Cl)cc2)nc2cnc(N3CCNCC3)nc21 | inconclusive [inhibitor, partial curve]
CCn1c(CNC(=O)Cc2ccc(OC)cc2)nnc1SCC(=O)c1ccccc1 | active: 2.82 µM
COc1ccc(OC)c(C2C3=C(CC(C)(C)CC3=O)Nc3nnnn32)c1 (stereo unspecified) | inactive
CC(C)N1CCC(N2CCN(Cc3ccc(-c4ccc(Cl)cc4)o3)CC2CCO)CC1 (stereo unspecified) | inconclusive [inhibitor, single point]
CCOC(=O)N1CCN(C(=O)c2cnn3c(C(F)F)cc(-c4ccc(C)cc4)nc23)CC1 | inconclusive [inhibitor, single point]
CC1=NN(c2ccccc2)C(=O)/C1=C\c1cc(C)n(-c2ccccc2)c1C | inconclusive [inhibitor, single point]
CCOc1cc(/C=N/NC(N)=S)cc(Br)c1OCc1ccccc1C | active: 1.26 µM
O=C(CCS(=O)(=O)c1ccc(Cl)cc1)OCC(=O)N1CCCCC1 | inactive

SMILES | Potency
Cc1noc(C)c1-c1nc(N(C)Cc2ccco2)c2ccccc2n1 | inconclusive [inhibitor, single point]
O=C(O)c1ccccc1NS(=O)(=O)c1ccc2c(c1)OCCO2 | inconclusive [inhibitor, single point]
COc1cc(NS(=O)(=O)c2ccc(NC(=O)/C=C/c3ccc([N+](=O)[O-])cc3)cc2)ncn1 | inconclusive [inhibitor, single point]
Cc1ccc2[nH]c(=O)c(CN(Cc3ccccc3)Cc3nnnn3C3CCCC3)cc2c1 | active: 14.1 µM
CC(c1ccco1)N(C(=O)COc1ccccc1[N+](=O)[O-])c1ccccn1 (stereo unspecified) | inactive
Cc1ccc(S(=O)(=O)NCc2ccc(C(=O)N3CCCC3)cc2)cc1 | inconclusive [inhibitor, single point]
CCOC(=O)C1C/C(=C\C(C)=O)c2cccc(C(F)(F)F)c2O1 (stereo unspecified) | inactive
COc1ccc(-n2c(Cc3cccs3)nnc2SCC(=O)Nc2ccc3c(c2)OCCO3)cc1 | active: 2 µM
CCOC(=O)CSCC(=O)Nc1nnc(-c2cccc([N+](=O)[O-])c2)s1 | inconclusive [inhibitor, partial curve]
CN1CCN(CC#CCC(O)(c2ccccc2)C2CCCC2)CC1 (stereo unspecified) | inactive
CC(C)Oc1ccc(C2C(C#N)=C(N)Oc3c2oc(CO)cc3=O)cc1 (stereo unspecified) | inconclusive [inhibitor, single point]
Cc1ccccc1OCCNC(=O)CSc1ccc(C(F)(F)F)cc1[N+](=O)[O-] | active: 12.6 µM
N#CCCn1c(=O)c(-c2ccccc2)nc2cnc(Oc3ccccc3)nc21 | inconclusive [inhibitor, single point]
O=C(NCc1ccco1)c1sc(=S)n2c1[nH]c(=O)c1ccccc12 | inactive
C=CCOC(=O)C1=C(C)OC(N)=C(C#N)C1c1ccc2c(c1)OCO2 (stereo unspecified) | inconclusive [inhibitor, partial curve]
CC(C)OC(=O)CC12CN(C)CC(CC(=O)OC(C)C)(CN(C)C1)C2=O | inactive
O=C(COC(=O)c1cc(S(=O)(=O)N2CCCCC2)ccc1N1CCOCC1)NC1CCS(=O)(=O)C1 (stereo unspecified) | inactive
CCCCCN=C(C)c1c(O)c2ccccc2oc1=O | inconclusive [inhibitor, single point]
COc1ccc(CNC(=O)/C=C/C(=O)O)cc1OC | inconclusive [inhibitor, single point]
Cc1cc(C)n2cc(CSc3nncn3C)nc2n1 | inconclusive [inhibitor, partial curve]
c1ccc(CCc2nn3c(Cc4ccccc4)nnc3s2)cc1 | active: 8.91 µM
O=C(COCC(=O)N/N=C/c1ccccc1F)N/N=C/c1ccccc1F | inconclusive [inhibitor, single point]
C/C(N)=C(/C#N)C(=O)CSc1nc2scc(-c3ccccc3)c2c(=O)n1C | active: 5.62 µM
O=C(Nc1cccc(S(=O)(=O)N2CCCCC2)c1)c1ccc(S(=O)(=O)C(F)F)cc1 | inconclusive [inhibitor, partial curve]

SMILES | Potency
Cc1nc(SCC(=O)c2ccc(Cl)s2)c2oc3ccccc3c2n1 | inconclusive [inhibitor, single point]
COc1cccc(CN2CCN(Cc3ccc4c(NC(C)=O)cccc4n3)CC2CCO)c1 (stereo unspecified) | inconclusive [inhibitor, single point]
O=C(CSc1ccc(Cl)cc1)Nc1ccc(NC(=O)c2ccco2)cc1 | inconclusive [inhibitor, single point]
Cc1ccc(CNC(=O)c2ccc3c(=O)n(CCCN4CCCC4=O)c(=S)[nH]c3c2)cc1 | inconclusive [inhibitor, full curve]
CCn1c2ccccc2c2cc(/C=N/NC(=O)c3cccc(C)c3)ccc21 | inconclusive [inhibitor, partial curve]
CC(=O)Nc1ccc(-c2nc3c(C)cccc3[nH]2)cc1 | inconclusive [inhibitor, partial curve]
O=C(NCCCn1ccnc1)C(F)(F)C(F)(F)C(=O)NCCCn1ccnc1 | inactive
CCS(=O)(=O)NCCc1cc2c(OC)ccc(OC)c2[nH]c1=O | inconclusive [inhibitor, single point]
Cc1nc(C)c(C(=O)NNS(=O)(=O)c2ccc3ccccc3c2)s1 | inconclusive [inhibitor, single point]
COCc1cc(N2CCOCC2)nc(SCc2ccc(Cl)cc2)n1 | inconclusive [inhibitor, single point]
CCOC(=O)C1(Cc2ccc(Cl)cc2)CCN(C(=O)c2cscn2)CC1 | inconclusive [inhibitor, single point]
CCC(C)(NC=O)C(=O)Nc1c(C)cccc1C (stereo unspecified) | inactive
O=C(Cc1cccc2ccccc12)Nc1ccc(-c2cc3ccccc3oc2=O)cc1 | inconclusive [inhibitor, partial curve]
Cc1cccc(C2=NC(C(F)(F)F)(C(F)(F)F)c3c(n(-c4ccc(F)cc4)c(=O)[nH]c3=O)N2)c1 | inconclusive [inhibitor, single point]
Cc1nn(C)c(Cl)c1CN1CCN(C2CCCC2)C(CCO)C1 (stereo unspecified) | inactive
S=c1[nH]c2ccc(Cl)cc2s1 | active: 1.26 µM
COc1ccc(OCC(O)CNS(=O)(=O)c2cccc(Cl)c2)cc1 (stereo unspecified) | active: 10 µM
Cc1ccc(CNC(=O)COc2ccc(C(=O)c3ccc(F)cc3)cc2)cc1 | inconclusive [inhibitor, single point]
O=c1cc(O)cc(/C=C/c2ccc(O)c(O)c2)o1 | inconclusive [inhibitor, partial curve]
Cc1nnc(SCCN2CCOCC2)n1-c1cccc(Cl)c1 | inconclusive [inhibitor, single point]
O=C(O)c1ccc2c(c1)OCCO2 | inactive
Cn1c(SCCS(=O)(=O)c2ccc(Cl)cc2)nnc1-c1ccccc1 | inconclusive [inhibitor, partial curve]
Cc1cc(C(=O)N/N=C\C(Br)=C\c2ccccc2)c(C)o1 | inconclusive [inhibitor, single point]
